# Reference: the supplement of paper PMC3334620
# Whole data set: some 33,000 sequences, median “E-score (-0.5 to 0.5)” near -0.053, cut for the highest 2% near 0.37. This is one part of the list.
# Molecular target: Hap1 (UniProt P0CE41)
# Experiment: PBM E-score (8-mer binding enrichment) (E-score (-0.5 to 0.5)); higher = stronger / more preferred TF binding; most listed sequences are background and not binding sites
# Conditions: protein concentration: 200 nM; construct: GST-DNA-binding domain
# In short: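 Each ungapped eight-base word and its reverse complement, pooled, received an E-score from the Universal PBM Analysis Suite. Underlying scans, normalised with masliner, recorded fluorescent anti-GST bound to GST-tagged yeast transcription factors. These were applied at about 100-200 nM to universal all-10-mer Agilent arrays double-stranded by primer extension.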
# UniProt P0CE41, sequence (P0CE41 whole entry): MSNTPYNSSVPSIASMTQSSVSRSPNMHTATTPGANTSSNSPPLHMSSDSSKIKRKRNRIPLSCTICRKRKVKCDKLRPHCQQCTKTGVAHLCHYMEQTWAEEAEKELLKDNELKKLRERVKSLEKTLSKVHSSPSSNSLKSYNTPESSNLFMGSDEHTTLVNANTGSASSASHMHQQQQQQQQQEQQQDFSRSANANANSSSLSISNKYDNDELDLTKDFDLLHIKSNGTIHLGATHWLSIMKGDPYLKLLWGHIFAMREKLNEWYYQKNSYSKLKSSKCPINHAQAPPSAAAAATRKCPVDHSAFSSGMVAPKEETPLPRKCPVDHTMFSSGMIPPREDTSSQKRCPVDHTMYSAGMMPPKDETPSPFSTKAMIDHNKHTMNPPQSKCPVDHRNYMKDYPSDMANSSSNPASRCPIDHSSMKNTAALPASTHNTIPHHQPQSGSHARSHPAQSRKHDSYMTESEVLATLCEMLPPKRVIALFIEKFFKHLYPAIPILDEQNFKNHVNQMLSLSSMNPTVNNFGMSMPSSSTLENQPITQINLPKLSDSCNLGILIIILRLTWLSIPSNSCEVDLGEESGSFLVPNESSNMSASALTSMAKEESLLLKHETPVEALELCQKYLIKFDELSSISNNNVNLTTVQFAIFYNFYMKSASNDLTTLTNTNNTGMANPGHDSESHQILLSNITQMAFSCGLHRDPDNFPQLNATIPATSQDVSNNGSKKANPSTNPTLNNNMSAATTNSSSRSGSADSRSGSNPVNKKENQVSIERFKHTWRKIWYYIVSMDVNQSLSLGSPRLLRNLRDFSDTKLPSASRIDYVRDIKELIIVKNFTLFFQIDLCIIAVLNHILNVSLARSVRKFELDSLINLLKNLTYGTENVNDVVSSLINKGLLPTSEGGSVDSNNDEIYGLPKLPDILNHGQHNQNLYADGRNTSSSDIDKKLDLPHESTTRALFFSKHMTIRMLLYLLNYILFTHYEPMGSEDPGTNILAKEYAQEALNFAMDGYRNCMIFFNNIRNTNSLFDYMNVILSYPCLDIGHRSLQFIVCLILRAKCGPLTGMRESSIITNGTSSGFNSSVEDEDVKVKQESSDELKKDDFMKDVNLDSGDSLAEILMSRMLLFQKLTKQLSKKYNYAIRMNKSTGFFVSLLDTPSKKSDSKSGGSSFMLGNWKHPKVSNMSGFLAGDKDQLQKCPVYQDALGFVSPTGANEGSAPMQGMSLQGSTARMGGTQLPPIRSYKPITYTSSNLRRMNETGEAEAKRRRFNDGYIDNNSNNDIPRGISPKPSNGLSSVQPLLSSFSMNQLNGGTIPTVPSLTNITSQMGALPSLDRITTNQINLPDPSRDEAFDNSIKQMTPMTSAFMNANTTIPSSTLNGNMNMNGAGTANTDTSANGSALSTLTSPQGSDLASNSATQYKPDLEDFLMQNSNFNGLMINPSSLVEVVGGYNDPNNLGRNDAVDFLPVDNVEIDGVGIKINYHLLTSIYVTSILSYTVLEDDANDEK
row,Sequence,PBM E-score
1,GTGTTTCA,-0.156
2,ATGTAACA,-0.14
3,AAAGGAAA,-0.0768
4,CTCGGCGA,0.383
5,GCTATAAC,0.0749
6,AGGAAGGC,-0.189
7,CCCCACCC,0.207
8,CCCTACGC,-0.113
9,CTTCAGAA,-0.107
10,GCCTGAAC,-0.0686
11,GGGCCACC,0.0898
12,CCATATTC,0.0415
13,ATCAGCCC,-0.153
14,CAATGTCC,0.0735
15,ACCTTCGG,0.247
16,ACGGCTCT,0.122
17,CAATAAGA,-0.112
18,ATCCCCGA,0.44
19,ATACTTCA,-0.22
20,ATCTTAAA,-0.0261
21,GAGCCCCC,-0.174
22,CCTTGCTA,-0.27
23,CAAGCGGA,0.134
24,AAAGGCAT,-0.125
25,AGCTGAGC,-0.0676

row,Sequence,PBM E-score
1,CTGCGATC,-0.179
2,GGAGGCGA,-0.0142
3,AATCCTTG,0.0432
4,ATTTGCTG,0.0215
5,TCGCCAAA,-0.0842
6,CCTCATTA,-0.165
7,AAGTCAAC,-0.35
8,CAGCGACC,-0.0029
9,AATATCAC,0.0531
10,AGTTCTCG,0.0632
11,CAGGTGGA,-0.23
12,TGTAACAA,-0.24
13,ATCAGAAA,-0.184
14,AACGCCCC,0.128
15,ATTCTCAG,-0.143
16,AATAGGGC,0.0175
17,ACTTTCAT,-0.167
18,CTAGTGAG,-0.16
19,ATCTTAAG,-0.0593
20,CTTAACTA,-0.0648
21,CGTCTGAC,-0.045
22,GCTCCACA,-0.189
23,GAAAAAGC,0.0726
24,ACGAAAAG,-0.0325
25,CAACTGAC,-0.147

row,Sequence,PBM E-score
1,ATCACAAC,-0.0371
2,TCTGCAAA,-0.133
3,AGAGCCTA,-0.233
4,AGCGCCGA,0.372
5,GTACATAC,0.00046
6,GCAATAGA,-0.147
7,AACACGTT,-0.055
8,CTCCTTTA,-0.167
9,ATGCTATA,-0.224
10,AAGAAATA,-0.0989
11,AAAGTAAA,-0.134
12,ATGAGTAA,-0.176
13,AGAAAGTG,-0.151
14,ATTGCATC,-0.091
15,CTTTTCCC,-0.116
16,GGGGCACC,-0.0243
17,ATACAATG,-0.0139
18,AATGGGAA,-0.239
19,AACATGGC,-0.125
20,CGGTGAAA,0.337
21,AAGAAGAT,0.00478
22,GATTAAGC,0.24
23,ACATAAGT,-0.0829
24,AAACTTCA,-0.205
25,CTCCCCGA,0.247

row,Sequence,PBM E-score
1,CAAATCTG,-0.304
2,AATTTAGC,0.036
3,ACGCGACG,-0.0767
4,CACTACAA,-0.0996
5,AAAGTTCT,0.0513
6,ACGGCGAT,0.241
7,AAAGACCG,0.345
8,GAAACTGA,-0.138
9,CCGACCTA,0.226
10,GCACTCCC,-0.117
11,ATCGAGAT,-0.0329
12,CGCCTTGA,-0.0767
13,CGTCGCTA,-0.121
14,TCGGTCAA,0.277
15,TCTGACAA,-0.203
16,CCGTTCCA,0.172
17,CGCAACTA,0.122
18,AGCTATTA,-0.104
19,GAGCCTAA,-0.0722
20,GAAGGCGC,0.0107
21,ATAATTCA,-0.0771
22,CGTTAACG,0.291
23,CAAGAACC,-0.132
24,TGCCGTAA,0.0155
25,AGAGTGTG,-0.119

row,Sequence,PBM E-score
1,ACAGTTAG,-0.113
2,ACACATAG,-0.23
3,GACTCGTA,-0.04
4,CACTATGG,-0.247
5,CTTTACGC,-0.096
6,CAATCCAG,-0.0698
7,CAAAGCGG,0.0171
8,AGCGTCAT,-0.139
9,CCCATACA,-0.257
10,ACCTAAAC,0.0175
11,ATGCCTGG,-0.213
12,GCTACGTA,-0.189
13,ACTTGCAT,0.0174
14,ATTGCAGC,-0.121
15,ACAGCGGG,0.00133
16,CAGAACGA,-0.181
17,CATAGGAC,-0.18
18,AGATCGCC,-0.00144
19,GGGGAAAA,0.0838
20,AGAAACCA,-0.0938
21,ATCCTAGC,-0.233
22,GTTCTACA,-0.231
23,CGGCTGCA,0.195
24,GCCACCGC,0.00177
25,ATCGGTTA,0.332

row,Sequence,PBM E-score
1,GAAGAAAA,-0.0242
2,CTTTATTC,-0.0165
3,CCCTGGCC,-0.191
4,CGAGTCTC,-0.0636
5,CGACCTAA,0.161
6,GTTTATAA,0.222
7,ACCCGTGC,-0.0971
8,CCTGCAGG,-0.0801
9,CAAGATTG,-0.185
10,CATAGTCA,-0.282
11,AGAAGAGG,-0.0709
12,ATAACTAC,0.116
13,CACCCCTC,-0.0955
14,CATTTTGA,-0.222
15,CGACCCCG,0.196
16,CGCTTAAA,-0.0379
17,AGACTACG,-0.0441
18,GAGGCTCA,-0.217
19,GCATACAC,-0.118
20,AAATATAG,-0.0275
21,CCTTTATC,0.109
22,CTCCCAGC,-0.0749
23,TAAGGATA,-0.0188
24,ATTATTCA,0.0104
25,GCTGGGAA,0.156

row,Sequence,PBM E-score
1,ATCTCTCA,0.0459
2,TAAGTGTA,-0.282
3,CGCACCCC,0.0616
4,TAACAGAA,-0.185
5,TTAGCCAA,-0.222
6,CGTAACGA,-0.188
7,CCGGGTAG,0.282
8,CGTTCGCA,-0.252
9,ACTGCGGC,0.109
10,CGGTTGCC,0.139
11,CGGAATAG,0.245
12,TATCTTCA,-0.164
13,AATGTTAG,-0.156
14,CACAAGCG,-0.186
15,GCTCCTGA,0.156
16,GAGAGAAC,-0.174
17,ACTGGAAT,-0.223
18,CGCAGGGC,-0.0256
19,CACAACTA,0.0154
20,ATGGTTGA,-0.104
21,ACGGCCAC,0.109
22,CGCGTGGC,-0.0903
